Source: PubChem BioAssay (NCI)
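These data come from cells grown in 96-well plates and exposed to compound for 48 hours at five concentrations. Here, GI50 denotes the concentration required for 50% inhibition of growth. TGI: concentration producing complete growth inhibition.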

Test system: NCI-H322M lung
Experiment: growth of human tumour cells (NCI), 48 h

COc1cc2nc(-c3ccc(C(F)(F)F)cc3)cc(OCCCNCC3CCCO3)c2cc1OC (configuration not stated)
GI50: 10.6 µM | TGI: 22.4 µM
